The campaign covered roughly 150,000 compounds. About 540 (0.36%) showed an effect of 50% or more. Some of the results follow.

Usually % Inhibition stands for the change of the read-out against control, counted positive when it falls.

The assay deals with Plasmodium falciparum. The experiment in a line: Primary screen in NF54 nanoGlo assay, in single point, at 2uM, 72h; a lower Z score goes with more inhibition. Particulars: timepoint 72 hour. It is filed as functional, Erythrocyte.
For `C[C@@H](Cn1cncn1)Nc1nccn(C)c1=O`, the “% Inhibition” value is reported as -13% and the Z score is given as 1.16.
As to `COc1cc(CN2C[C@@H](CO)[C@H](NC(=O)c3ccncc3)C2)ccc1F`, the “% Inhibition” value was -7% and the Z score was 1.2.
As to `CN1CCOC(CNCC(O)c2ccccc2Cl)C1` (stereo not drawn), the “% Inhibition” value is 2% and the Z score is -0.32.
Consider `N#CCn1ccc(NC(=O)N2C3CCC2CC2(CC2)C3)n1`, for which the “% Inhibition” value was -4% and the Z score stood at 0.64.
For `O=C(NC[C@]12C[C@H]1COC21CCC1)c1ncoc1-c1ccon1`, the “% Inhibition” value was found to be 5% and the Z score is -0.99.
For `COc1ccccc1NC(=O)N1CC(c2nc(-c3ncccn3)no2)C1`, the “% Inhibition” value came to 4% and the Z score was -0.71.
Regarding `CCOC(=O)c1cc(-c2cccc(NC(=O)c3cc(C)nn3C)c2)n(-c2cccc(C)c2)n1`, the “% Inhibition” value is on record as -1% and the Z score is given as 0.15.
For `Cc1cc(CN(C)c2ncncc2Br)no1` the same measures were -6% and 0.73.
As to `CCOC(=O)N1CCN(C(=O)[C@H]2CCCN(c3nc(C)cc(C)n3)C2)CC1`, the “% Inhibition” value was -3% and the Z score is 0.36.
Turning to `Cc1nc(-c2cnn(C)c2)sc1C(=O)N[C@@H](C)COCC(C)C`, the “% Inhibition” value is reported as -9% and the Z score is given as 1.28.
As for `CCc1cc(-c2cccc(-c3ccn(CCO)n3)c2)nc(N(C)C)n1`, the “% Inhibition” value was -10% and the Z score was 1.37.
Regarding `COCCCNC(=O)CN(C)c1nc2c(s1)c(C)nn2-c1ccc(OC)cc1`, the “% Inhibition” value is listed as -2% and the Z score is 0.29.
For the molecule `Cc1cc(-c2nc(C3CCOCC3C)no2)n[nH]1` (stereo not drawn), the “% Inhibition” value is on record as -3% and the Z score was 0.54.
For `CCOc1ccccc1N(CC(=O)Nc1ccc(S(=O)(=O)Nc2cccc(Cl)c2Cl)cc1)S(=O)(=O)c1ccc(C)cc1` the same measures were -16% and 1.99.
For `O=C(Nc1ccnn1C1CCS(=O)(=O)C1)C1CC=CCC1` (stereo not drawn), the “% Inhibition” value is listed as -11% and the Z score came out at 1.12.
In the case of `N#Cc1ccccc1OCCOCc1ncc[nH]1`, the “% Inhibition” value is -13% and the Z score amounted to 1.41.
The like results for `CNC(=O)[C@H]1CCCN(C(=O)Cc2ccc(S(N)(=O)=O)s2)C1` were, in that order, -6% and 1.09.
In the case of `CCn1nc(C)nc1NC(=O)CC1CC2CCC1C2` (stereo not drawn), the “% Inhibition” value is listed as 2% and the Z score was -0.45.
Turning to `CC1=C(C)C[C@@H](C(=O)N(C)CCN(C)C(=O)c2ccc3[nH]c(=O)[nH]c3n2)CC1`, the “% Inhibition” value is on record as 19% and the Z score is listed as -2.47.
The like results for `CC1CC(C(=O)NCc2ncc[nH]2)CO1` (stereo not drawn) were, in that order, -2% and 0.22.
For `CN(C)[C@H]1CN(Cc2ccccc2C(=O)O)C[C@@H]1C1CC1` the same measures were 1% and -0.14.
For the molecule `CCCC1(CN[C@@H](CC)CO)CCN(C(=O)OC(C)(C)C)CC1`, the “% Inhibition” value is on record as -17% and the Z score was 1.96.
On to `O=C(CCC(=O)N1Cc2ccccc2Oc2ncccc21)Nc1c(F)c(F)c(F)c(F)c1F`, for which the “% Inhibition” value is reported as -2% and the Z score is on record as 0.21.
Regarding `C[C@H]1COCCN1C(=O)NC1CCCCC1`, the “% Inhibition” value was -2% and the Z score is on record as 0.33.
For the molecule `C[C@@H]1CN(C(=O)c2cccc(OC(F)F)c2)C[C@H](C)N1C`, the “% Inhibition” value is -16% and the Z score is reported as 3.12.
For `Cc1ccccc1N1C[C@@H](C(=O)Nc2ccc3ccccc3c2)CC1=O` the same measures were 4% and -0.59.
As to `CC(=O)N1CCN(C(=O)c2cccc(-c3ccco3)c2)C[C@@H](O)C1`, the “% Inhibition” value is listed as -2% and the Z score came out at 0.31.
For `CC(C)(C)OC(=O)N1CCCC(NC2CCCC3OCCC23)CC1` (stereo not drawn), the “% Inhibition” value is -7% and the Z score stood at 0.76.
For `CC1CCC2(CC1)OC[C@H](CNC(=O)NCC(F)F)O2` (stereo partly drawn) the same measures were -2% and 0.22.
With `CC(C)COCn1cc(Br)c(=O)[nH]c1=O`, the “% Inhibition” value turned out to be 35% and the Z score is -5.09.
As to `Cc1cc(NC(=O)CCN2CCn3c(nnc3C(F)(F)F)C2)no1`, the “% Inhibition” value is -13% and the Z score amounted to 1.29.
For `O=C(COc1ccc(F)cc1)Nc1nnc(-c2ccc3c(c2)OCO3)o1` the same measures were -6% and 1.11.
Take `CC[C@H](C)c1ccc(/N=C(\NCc2ccncc2)NC(=O)c2cccc(Cl)c2)cc1`: the “% Inhibition” value is given as -12% and the Z score was 2.11.
Take `CC[C@H](C)NC(=O)C(=O)Nc1ccc(C)cc1C`: the “% Inhibition” value is given as -8% and the Z score worked out at 1.02.
On to `CCc1oc(C(=O)N[C@H]2CCCCNC2=O)cc1CN1CCCC1`, for which the “% Inhibition” value is listed as -9% and the Z score was 1.26.
For `CCOC(=O)c1sc(NC2CCCC2)nc1C(F)(F)F` the same measures were -47% and 5.51.
With `CCCN(CC(=O)OC(C)(C)C)C(=O)[C@@H]1CCCCN1S(=O)(=O)CCC`, the “% Inhibition” value is -15% and the Z score amounted to 1.58.
With `O=C(Nc1cccnc1C(F)(F)F)c1ccnn1CC1CCC1`, the “% Inhibition” value is -9% and the Z score was 1.56.
Take `COCCS(=O)(=O)Nc1ncc(C(C)C)s1`: the “% Inhibition” value was determined as 2% and the Z score was -0.24.
In the case of `Cn1cc([C@@H]2CCCN2c2ncnc3c2cnn3C)cn1`, the “% Inhibition” value is recorded as -8% and the Z score was 1.27.
Consider `CCc1ccc(CNC(=O)c2ccc3nc(C4CCCCC4)oc3c2)nc1`, for which the “% Inhibition” value is listed as -6% and the Z score came to 0.86.
Regarding `Clc1ccc([C@H](c2ccccc2)n2ccnc2-c2c[nH]cn2)cc1`, the “% Inhibition” value is reported as -18% and the Z score is 1.94.
The like results for `O=C(N[C@H](c1ccccc1)c1nc2ccccc2[nH]1)c1ccco1` were, in that order, 6% and -0.87.
Consider `COc1nc(CNC(=O)C(C)C)nc(N2CCOCC2)n1`, for which the “% Inhibition” value is -5% and the Z score was 0.59.
Regarding `CC(C)(C)c1nccc(N2CCc3nc(N)sc3C2)n1`, the “% Inhibition” value is recorded as -13% and the Z score was 1.73.
As to `CCNS(=O)(=O)c1cc(-c2nc(C)c(C(=O)N3CCCCC3)s2)cs1`, the “% Inhibition” value came to 2% and the Z score is given as -0.32.
As for `CCC(C)NC(=O)C1COC2(CCN(C(=O)CC(C)(C)C)CC2)N1C(=O)c1ccccc1` (stereo not drawn), the “% Inhibition” value is listed as -9% and the Z score was determined as 1.33.
Consider `COCC(=O)N1C[C@H](c2ncco2)C2(CCN(C(=O)Cc3ccccc3)CC2)C1`, for which the “% Inhibition” value is -11% and the Z score is given as 1.66.
In the case of `CCCn1cc(C(=O)N(C)c2cccnc2N2CCCC2)cn1`, the “% Inhibition” value worked out at 7% and the Z score is recorded as -0.77.
For `C#CCNC(=O)CNC(=O)C1CC1c1c(F)cccc1F` (stereo not drawn), the “% Inhibition” value was 11% and the Z score is reported as -1.47.
Regarding `Cc1ccc([C@H](C)NS(=O)(=O)c2cc(-c3nc(C(C)(C)C)cs3)cs2)c(C)c1`, the “% Inhibition” value was -6% and the Z score was 0.8.
In the case of `COc1ccccc1CCCN1CC(=O)N2CC[C@@H](O)C[C@H]2C1=O`, the “% Inhibition” value was 7% and the Z score was -0.96.
For the molecule `NC(=O)CO[C@H]1CCC12CCN(C(=O)c1ccc3ccccc3n1)CC2`, the “% Inhibition” value is listed as -6% and the Z score amounted to 0.81.
`CN1CCN(C[C@H]2CCCN(C(=O)Cc3ccncc3)C2)CC1`: the “% Inhibition” value is -1% and the Z score amounted to 0.17.
As for `CCC(Oc1ccccc1C)C(=O)Nc1ccc(N2CCCC(C(N)=O)C2)nc1` (stereo not drawn), the “% Inhibition” value is -1% and the Z score stood at 0.17.
In the case of `COc1ccc(CCNC(=O)[C@@H](Nc2ccc(C(F)(F)F)cc2Cl)C(C)C)cc1`, the “% Inhibition” value was 0% and the Z score is recorded as -0.07.
For `CO[C@@H]1CCCCC[C@@H]1S(=O)(=O)NCCNc1ncccn1`, the “% Inhibition” value is recorded as -6% and the Z score amounted to 0.94.
Take `O=C(c1ccccc1F)N(Cc1ccc(-c2ccc(Cl)cc2)o1)[C@H]1CCS(=O)(=O)C1`: the “% Inhibition” value is listed as -13% and the Z score is 1.69.
For the molecule `Cc1c(C(=O)O)sc2ncnc(NCC3(Cn4ccnc4)CC3)c12`, the “% Inhibition” value is listed as -3% and the Z score turned out to be 0.66.
For the molecule `O=C(c1cnccn1)N1CCC[C@H]1c1nc2ccccc2s1`, the “% Inhibition” value was -6% and the Z score is 0.74.
In the case of `CCOc1ccc(CN2CCN(C(=O)c3ccco3)CC2)cn1`, the “% Inhibition” value worked out at 4% and the Z score is recorded as -0.55.
As to `CC(C)c1cc(NCc2csc(-c3ccn(C)n3)n2)ncn1`, the “% Inhibition” value was -13% and the Z score turned out to be 1.98.
On to `Cc1ncsc1Cn1nc(C2CCNCC2)n(Cc2ccccc2)c1=O`, for which the “% Inhibition” value is reported as -22% and the Z score is listed as 2.58.
Regarding `O=C(Cc1ccccc1)N[C@H]1CCN(c2nc3ccccc3n2C2CCCC2)C1`, the “% Inhibition” value is given as -8% and the Z score was 1.54.
On to `Cc1nn(C)c2nc(-c3cccs3)cc(C(=O)N3c4ccccc4C[C@@H]3C)c12`, for which the “% Inhibition” value was -4% and the Z score was 0.66.
Turning to `COC(=O)C[C@H](c1c(Cc2ccc(OC)cc2)[nH][nH]c1=O)c1ccnn1C`, the “% Inhibition” value is reported as -10% and the Z score is on record as 1.33.
The like results for `CC(=O)N1CCC(NC(C)(C)Cc2ccc(Cl)cc2Cl)CC1` were, in that order, -7% and 0.79.
Take `CN(Cc1ccc(Br)o1)C(=O)[C@@H]1CCCO1`: the “% Inhibition” value is reported as -7% and the Z score amounted to 1.
As to `O=C1CNCCN1[C@H]1CCCN(S(=O)(=O)c2cc(Cl)cc(Cl)c2)C1`, the “% Inhibition” value was -12% and the Z score came out at 2.16.
On to `COC(=O)CC[C@H](C)N1CCc2[nH]nc(-c3cccc(OC)c3)c2C1`, for which the “% Inhibition” value is -12% and the Z score is recorded as 1.12.
In the case of `CCOC(=O)C(O)C(C)NC(=O)CCc1cccc(OC(F)F)c1` (stereo not drawn), the “% Inhibition” value is recorded as -1% and the Z score came to 0.18.
Take `CNC(=O)CN1CCC(CN(C)c2ccnc3c(F)cccc23)CC1`: the “% Inhibition” value is 1% and the Z score was -0.11.
As to `COc1cccc(NC(=O)N2CC[C@H]3CC(=O)Nc4ccccc4OCC[C@H]3C2)c1`, the “% Inhibition” value is reported as -9% and the Z score is 1.71.
The like results for `Cc1cc2cc(C(=O)N(CC(=O)O)C3CC3)oc2cc1C` were, in that order, -4% and 0.77.
Regarding `CC(C)Cc1cc(C(=O)N2CC(c3ccncc3)C2)nc(=O)[nH]1`, the “% Inhibition” value is -11% and the Z score is listed as 1.4.
`Clc1ccc(-c2cc(CN3CCn4ccnc4C3)on2)c(Cl)c1`: the “% Inhibition” value turned out to be 3% and the Z score was -0.69.
On to `CCN(CCO)c1ccc(C(=O)NC2CC2)nn1`, for which the “% Inhibition” value is on record as 0% and the Z score stood at 0.02.
Take `COC(=O)c1ccccc1N1C(=O)[C@@H]2[C@H](Cc3ccccc3)N[C@]3(C(=O)Nc4ccccc43)[C@@H]2C1=O`: the “% Inhibition” value is -10% and the Z score was 1.3.
As for `C[C@H]1CN(CCc2cn(CC(=O)O)nn2)CCc2ccc(F)cc21`, the “% Inhibition” value was -9% and the Z score is given as 1.04.
The like results for `Cc1cccc(N2CCN(C(=O)Nc3cccnc3)[C@@H](C)C2)n1` were, in that order, 3% and -0.42.
As for `O=C1C[C@H](c2nc3ccccc3n2Cc2cccc3ccccc23)CN1c1ccccc1`, the “% Inhibition” value turned out to be 2% and the Z score was -0.34.
With `CS(=O)(=O)C1CCCCC1NCc1cccnc1N1CCOCC1` (stereo not drawn), the “% Inhibition” value is on record as -5% and the Z score was found to be 1.05.
For `CCCc1cc(C(=O)NCCN2CCOC2=O)no1` the same measures were -7% and 0.85.
As to `O=C(NCCCc1ccccc1F)[C@@H]1NCCc2[nH]cnc21`, the “% Inhibition” value is reported as -6% and the Z score was 0.6.
